Some of these densities may be calculated back from excess volumes.
Assay: xn = mol fraction of the nth substance listed
Conditions: 101 kPa

CC(C)[C@H](N)C(=O)[O-].CC[n+]1ccn(C)c1 + O
mass density [kg/m3]
Conditions | 303.15 K | 308.15 K | 313.15 K | 318.15 K | 323.15 K | 328.15 K | 333.15 K
x2 = 0.0902 | 1113.7 | 1110.4 | 1107 | 1104 | – | 1097.9 | 1094.9
x2 = 0.113 | 1114.7 | 1111.5 | 1108 | 1105 | 1101.9 | 1098.9 | –
x2 = 0.1231 | – | 1111.9 | 1108.5 | – | – | 1099.4 | 1096.3
x2 = 0.1425 | 1116.1 | 1113 | 1109.5 | – | 1103.2 | 1100.2 | –
x2 = 0.1657 | 1117.5 | 1114.2 | – | 1107.7 | 1104.6 | 1101.5 | 1098.4

From a compilation of properties of binary mixtures (doi:10.1021/ie101903t)
